Reference: the supplement of paper PMC4967469
By IC50 is meant the dose at which the fit gives 50% viability; a fit beyond the top or the lowest dose is shown as a bound at that dose. For AUC the same curve is integrated over the 256-fold range of doses and scaled to a fraction; the more sensitive the line, the further below 1. For some assays here: Where the top dose is marked as inferred, it was calculated from the reported fits.

Legend:
Assay in all cases: Viability of human cancer cell lines after 72 h of drug (GDSC screen)
[1] = compound: Cn1cc(/C=C2\C(=O)Nc3cccnc32)c2ccccc21 [GW 441756]; settings: top dose 2 µM; top dose inferred
Procedure: (§1)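 Human cancer cell lines in 384-well plates, medium with 10% serum, drug for 72 h over a 256-fold dose range (nine 2-fold or five 4-fold steps up to the top dose). Adherent lines were fixed and stained with the nucleic acid dye Syto60, suspension lines read with resazurin; signal relative to control wells, capped at 0 and 100%. One two-parameter sigmoid per drug and line, fitted in a mixed model over all curves with the slope shared within a line.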

[2] = compound: CC1(C)CCC(c2ccc(Cl)cc2)=C(CN2CCN(c3ccc(C(=O)NS(=O)(=O)c4ccc(N[C@H](CCN5CCOCC5)CSc5ccccc5)c(S(=O)(=O)C(F)(F)F)c4)cc3)CC2)C1 [ABT-263]; settings: top dose 2 µM; top dose inferred
Procedure: as §1

[3] = compound: CC(=O)Nc1nc(C)c(-c2ccc(Cl)c(S(=O)(=O)NCCO)c2)s1 [PIK-93]; settings: top dose 20 µM
Procedure: as §1

[4] = compound: COc1cc(/C=C/C(=O)N2CCC=CC2=O)cc(OC)c1OC [piperlongumine]; settings: top dose 10 µM
Procedure: as §1

Row | Cell Line | AUC [1] | IC50 [1] | AUC [2] | IC50 [2] | AUC [3] | IC50 [3] | AUC [4] | IC50 [4]
1 | SK-MEL-30 (melanoma, adherent) | 0.985 | > 2000 nM | 0.96 | > 2000 nM | 0.877 | > 20000 nM | 0.8 | 5150 nM
2 | NCI-H1792 (lung adenocarcinoma, adherent) | 0.983 | > 2000 nM | 0.964 | > 2000 nM | 0.915 | > 20000 nM | 0.917 | > 10000 nM
3 | EFO-21 (ovary, adherent) | 0.98 | > 2000 nM | 0.966 | > 2000 nM | 0.85 | > 20000 nM | 0.892 | > 10000 nM
4 | Calu-3 (lung adenocarcinoma, adherent) | 0.976 | > 2000 nM | 0.868 | > 2000 nM | 0.826 | 16500 nM | 0.822 | 7880 nM
5 | NCI-H838 (lung adenocarcinoma, adherent) | 0.87 | 2000 nM | 0.985 | > 2000 nM | 0.914 | > 20000 nM | 0.807 | 5370 nM
6 | SK-MES-1 (lung squamous cell carcinoma, adherent) | 0.985 | > 2000 nM | 0.985 | > 2000 nM | 0.96 | > 20000 nM | 0.82 | 6420 nM
7 | IGR-1 (melanoma, adherent) | 0.987 | > 2000 nM | 0.88 | 1630 nM | 0.759 | 6190 nM | 0.777 | 3520 nM
8 | TT2609-C02 (thyroid, adherent) | 0.962 | > 2000 nM | 0.902 | > 2000 nM | 0.938 | > 20000 nM | 0.974 | > 10000 nM
9 | SISO (cervix, adherent) | 0.967 | > 2000 nM | 0.975 | > 2000 nM | 0.882 | 19600 nM | 0.642 | 1520 nM
10 | QGP-1 (pancreas, adherent) | 0.974 | > 2000 nM | 0.961 | > 2000 nM | 0.824 | > 20000 nM | 0.943 | > 10000 nM
11 | 201T (lung adenocarcinoma, adherent) | 0.872 | > 2000 nM | 0.979 | > 2000 nM | 0.853 | > 20000 nM | – | –
12 | HEC-1 (endometrium, adherent) | 0.967 | > 2000 nM | 0.93 | > 2000 nM | 0.969 | > 20000 nM | 0.722 | 2600 nM
13 | HT-3 (cervix, adherent) | 0.928 | > 2000 nM | 0.962 | > 2000 nM | 0.905 | > 20000 nM | 0.718 | 2620 nM
14 | NCI-H2009 (lung adenocarcinoma, adherent) | 0.964 | > 2000 nM | 0.956 | > 2000 nM | 0.943 | > 20000 nM | 0.793 | 4870 nM
15 | MFE-296 (endometrium, adherent) | 0.959 | > 2000 nM | 0.983 | > 2000 nM | 0.893 | > 20000 nM | 0.709 | 2560 nM
16 | PL4 (pancreas, adherent) | 0.974 | > 2000 nM | 0.905 | > 2000 nM | 0.936 | > 20000 nM | 0.758 | 3590 nM
17 | NCI-H1651 (lung adenocarcinoma, adherent) | 0.983 | > 2000 nM | 0.979 | > 2000 nM | 0.979 | > 20000 nM | 0.804 | 5450 nM
18 | 639-V (bladder, adherent) | 0.901 | 1900 nM | 0.968 | > 2000 nM | 0.952 | > 20000 nM | 0.806 | 4190 nM
19 | RERF-LC-MS (lung adenocarcinoma, adherent) | 0.96 | > 2000 nM | 0.987 | > 2000 nM | 0.786 | 8870 nM | 0.814 | 5650 nM
20 | HGC-27 (stomach, adherent) | 0.966 | > 2000 nM | 0.98 | > 2000 nM | 0.665 | 3310 nM | 0.567 | 924 nM
21 | LCLC-103H (large cell lung carcinoma, adherent) | 0.985 | > 2000 nM | 0.982 | > 2000 nM | 0.772 | 7000 nM | 0.853 | 6730 nM
22 | YKG-1 (glioma, adherent) | 0.987 | > 2000 nM | 0.977 | > 2000 nM | 0.86 | 17100 nM | 0.717 | 2590 nM
23 | MOG-G-CCM (glioma, adherent) | 0.982 | > 2000 nM | 0.842 | 1760 nM | 0.778 | 9490 nM | 0.758 | 4000 nM
24 | CADO-ES1 (Ewing sarcoma, suspension) | 0.988 | > 2000 nM | 0.922 | > 2000 nM | 0.582 | 2110 nM | 0.84 | 7060 nM
25 | LCLC-97TM1 (large cell lung carcinoma, adherent) | 0.983 | > 2000 nM | 0.983 | > 2000 nM | 0.658 | 3600 nM | 0.802 | 5490 nM
26 | KMH-2 (thyroid, adherent) | 0.974 | > 2000 nM | 0.99 | > 2000 nM | 0.96 | > 20000 nM | 0.793 | 4010 nM
27 | LoVo (large intestine, adherent) | 0.975 | > 2000 nM | 0.93 | > 2000 nM | 0.921 | > 20000 nM | 0.815 | 5570 nM
28 | Hs-578-T (breast, adherent) | 0.953 | > 2000 nM | 0.982 | > 2000 nM | 0.978 | > 20000 nM | 0.815 | 5910 nM
29 | KMS-11 (myeloma, suspension) | 0.991 | > 2000 nM | 0.976 | > 2000 nM | 0.643 | 2910 nM | 0.733 | 2550 nM
